Hit rate of the full screen: of about 150,000 compounds, about 540 (0.36%) showed an effect of 50% or more. Some of the results follow.

The subject of this assay is Plasmodium falciparum. Nature of the assay: Primary screen in NF54 nanoGlo assay, in single point, at 2uM, 72h; a lower Z score goes with more inhibition. The format is functional, Erythrocyte. The note with it: timepoint 72 hour.
`O=C(c1cc(Cl)c[nH]c1=O)N1CCC(n2cc(C3CC3)nn2)CC1`: the “% Inhibition” value was 3% and the Z score is -0.55.
In the case of `O=c1c2ccccc2c(CNS(=O)(=O)c2cccnc2)nn1C1CCCC1`, the “% Inhibition” value is -12% and the Z score is given as 2.31.
For the compound `CCN(Cc1cccc(OC)c1)c1cc([C@H]2CCOC2)nc(N)n1`, the “% Inhibition” value was -1% and the Z score was found to be 0.24.
As to `Cc1cc(CNC(=O)C[C@H](C)NC(=O)OC(C)(C)C)c(C)o1`, the “% Inhibition” value worked out at 1% and the Z score is on record as -0.09.
With `Cc1csc(CN(Cc2ccno2)C[C@H]2CCCO2)n1`, the “% Inhibition” value is given as -12% and the Z score was 1.06.
For `CC[C@H](O)Cn1nc(C2CC2)nc1Cc1ccccc1OC`, the “% Inhibition” value is -14% and the Z score amounted to 2.34.
As to `O=C(Cn1nc(C(=O)N2CCc3ccccc32)ccc1=O)N1CCCCCC1`, the “% Inhibition” value is -12% and the Z score amounted to 2.02.
Consider `Cn1cnc2cc(C(=O)NCCOCc3cccc(Cl)c3)cnc21`, for which the “% Inhibition” value is recorded as 2% and the Z score is on record as -0.23.
`Cn1ncc2c(NC3CN(c4ccc(C(F)(F)F)cc4)C3)ncnc21`: the “% Inhibition” value is -7% and the Z score was 1.27.
For `Cc1cccc(Cl)c1NC(=O)N1CCC[C@@H]1CN1CCOCC1`, the “% Inhibition” value was -13% and the Z score is given as 1.16.
The like results for `Cc1ccnc(-c2ccccc2CN2CCOCC2)n1` were, in that order, -4% and 0.56.
In the same order, the values of `O=C(N[C@H]1CO[C@@H](CN2CCOCC2)[C@@H]1O)c1cccc(F)c1` are 5% and -0.84.
`CCCCNC(=O)CN(C)c1cc(C2CC(O)C2)ncn1` (stereo unspecified): the “% Inhibition” value is listed as -2% and the Z score amounted to 0.28.
As to `C#CC(=O)NCCNC(=O)c1cc(Br)c(C)cc1OC`, the “% Inhibition” value is listed as -14% and the Z score turned out to be 2.56.
Turning to `COc1ccc2[nH]c3c(c2c1)CCN(C(=O)Nc1cccc(Br)c1)[C@@H]3c1ccc(C)cc1`, the “% Inhibition” value came out at 14% and the Z score was -1.67.
`O=S(=O)(c1ccc2c(c1)OCCO2)N1CC[C@H](Cc2ccc(CO)cc2)C1`: the “% Inhibition” value is recorded as -22% and the Z score was 2.38.
Regarding `Cc1cc(C(=O)N2CCC[C@H]2c2cn[nH]c2)c(C)n1-c1nccs1`, the “% Inhibition” value was -2% and the Z score is given as 0.35.
With `CCOc1ccccc1CN1CCC(CNC(=O)c2cc(=O)[nH]c3ccc(S(=O)(=O)N4CCCCC4)cc23)CC1`, the “% Inhibition” value is -2% and the Z score worked out at 0.28.
As for `O=C(NCc1nccnc1-c1ccco1)NC1CCCC1`, the “% Inhibition” value was determined as 16% and the Z score is given as -2.07.
In the case of `Cc1ccc(N2S(=O)(=O)c3ccccc3S2(=O)=O)cc1`, the “% Inhibition” value is recorded as 4% and the Z score is recorded as -0.44.
For the compound `O=C(c1cccnc1)N1CCC[C@H]1c1ccc2c(c1)OCCO2`, the “% Inhibition” value is reported as -9% and the Z score was 0.98.
For the compound `COc1cc(OC)cc(N(C)Cc2nnc(C)o2)c1`, the “% Inhibition” value is reported as -4% and the Z score is on record as 0.56.
Consider `Cc1nsc(N2CC=CC23CCCCC3)n1`, for which the “% Inhibition” value is -4% and the Z score is reported as 0.5.
In the case of `COCc1cc(=O)n(CC(=O)Nc2cc(C)ccc2OC)c(N2CCCC2)n1`, the “% Inhibition” value is recorded as -10% and the Z score is 1.52.
Take `C[C@H]1CN(c2cc(NCC3CC3)ncn2)CCS1(=O)=O`: the “% Inhibition” value is -14% and the Z score was 1.4.
As for `Cn1cc(-c2cc(CNC(=O)N3CCNC3=O)ccn2)cn1`, the “% Inhibition” value is -8% and the Z score stood at 1.21.
In the case of `NC(=O)c1cnc(NC(=O)CCc2cccc(F)c2F)c(Cl)c1`, the “% Inhibition” value is -14% and the Z score was determined as 1.91.
In the same order, the values of `Clc1ccc(-c2nn(-c3ccccc3)cc2-c2nc(-c3ccccc3)c(-c3ccccc3)[nH]2)cc1` are -15% and 2.91.
Consider `O=C(Cc1ccc(Cl)cc1)Nc1nnc(CCCOc2ccccc2)s1`, for which the “% Inhibition” value is on record as -8% and the Z score is reported as 1.63.
As for `C[C@@H](CN1CCCC1=O)NCc1sc2ccccc2c1Cl`, the “% Inhibition” value is -1% and the Z score worked out at 0.15.
On to `Cn1cnc2c(C(=O)NCCN3CCOCC3)nn(-c3ccccc3)c2c1=O`, for which the “% Inhibition” value turned out to be 5% and the Z score is on record as -0.49.
For the compound `c1cc(-c2ccc(-c3cn(CC4CCCCC4)nn3)o2)n[nH]1`, the “% Inhibition” value is -4% and the Z score was 0.76.
Regarding `COCCNC(=O)N1CC(c2nc(C3CC3)no2)C1`, the “% Inhibition” value is reported as -18% and the Z score amounted to 3.4.
Consider `Cn1cc(-c2ccc(OCc3ccccc3)c(F)c2)c(C(=O)O)n1`, for which the “% Inhibition” value is -3% and the Z score came to 0.27.
The like results for `O=C(O)c1cccc(NCn2nnc3ccccc32)c1` were, in that order, -9% and 1.24.
For `CCN(C[C@H](C)C#N)C(=O)CNc1cc(F)c(F)cc1F`, the “% Inhibition” value was -7% and the Z score is on record as 0.89.
`CCc1nc(NC(=O)[C@H]2CCCN(C(=O)c3ccoc3)C2)sc1C`: the “% Inhibition” value was -15% and the Z score amounted to 1.52.
Turning to `CCOC(=O)c1ccccc1NC(=O)Cn1c(=O)n(CC)c(=O)c2sc(N3CCCC3)nc21`, the “% Inhibition” value is -4% and the Z score is given as 0.76.
The like results for `NC(=O)N1CCC(NC2(c3cccc(C(F)(F)F)c3)CCC2)CC1` were, in that order, 2% and -0.21.
With `CCn1c(CC2CCN(c3noc(C(C)C)n3)CC2)nn(C)c1=O`, the “% Inhibition” value is recorded as -7% and the Z score came out at 0.99.
In the case of `COc1ccc(-c2noc(CCC(=O)Nc3nnc(C(C)C)s3)n2)cc1OC`, the “% Inhibition” value is recorded as -3% and the Z score is 0.48.
In the case of `Cn1nncc1CN1CCN(Cc2cccc(Cl)c2Cl)CC1`, the “% Inhibition” value is on record as -8% and the Z score was 1.25.
In the case of `Cc1ccc(C(=O)CCCN2C[C@@H]3CC[C@H]2CN(C(=O)N(C)C)C3)cc1`, the “% Inhibition” value is recorded as -24% and the Z score came out at 3.44.

A word on the % Inhibition: it is the drop in the measured response relative to a control, in per cent.

These data come from ChEMBL document CHEMBL4888484, “Replenishing the malaria drug discovery pipeline: Screening and hit evaluation of the MMV Hit Generation Library 1 (HGL1) against asexual blood stage Plasmodium falciparum ,using a nano luciferase reporter read-out” (2022).
